44 molecules from PMC4336329 (PLoS ONE, 2015) can be followed below.

Out of some 310,000 compounds screened, about 2,200 (0.71%) showed an effect of 50% or more. The effect is printed as a negative number. Some of the results follow.

human ether-à-go-go-related gene (hERG) potassium channel, sequence (Q12809 whole entry, looked up): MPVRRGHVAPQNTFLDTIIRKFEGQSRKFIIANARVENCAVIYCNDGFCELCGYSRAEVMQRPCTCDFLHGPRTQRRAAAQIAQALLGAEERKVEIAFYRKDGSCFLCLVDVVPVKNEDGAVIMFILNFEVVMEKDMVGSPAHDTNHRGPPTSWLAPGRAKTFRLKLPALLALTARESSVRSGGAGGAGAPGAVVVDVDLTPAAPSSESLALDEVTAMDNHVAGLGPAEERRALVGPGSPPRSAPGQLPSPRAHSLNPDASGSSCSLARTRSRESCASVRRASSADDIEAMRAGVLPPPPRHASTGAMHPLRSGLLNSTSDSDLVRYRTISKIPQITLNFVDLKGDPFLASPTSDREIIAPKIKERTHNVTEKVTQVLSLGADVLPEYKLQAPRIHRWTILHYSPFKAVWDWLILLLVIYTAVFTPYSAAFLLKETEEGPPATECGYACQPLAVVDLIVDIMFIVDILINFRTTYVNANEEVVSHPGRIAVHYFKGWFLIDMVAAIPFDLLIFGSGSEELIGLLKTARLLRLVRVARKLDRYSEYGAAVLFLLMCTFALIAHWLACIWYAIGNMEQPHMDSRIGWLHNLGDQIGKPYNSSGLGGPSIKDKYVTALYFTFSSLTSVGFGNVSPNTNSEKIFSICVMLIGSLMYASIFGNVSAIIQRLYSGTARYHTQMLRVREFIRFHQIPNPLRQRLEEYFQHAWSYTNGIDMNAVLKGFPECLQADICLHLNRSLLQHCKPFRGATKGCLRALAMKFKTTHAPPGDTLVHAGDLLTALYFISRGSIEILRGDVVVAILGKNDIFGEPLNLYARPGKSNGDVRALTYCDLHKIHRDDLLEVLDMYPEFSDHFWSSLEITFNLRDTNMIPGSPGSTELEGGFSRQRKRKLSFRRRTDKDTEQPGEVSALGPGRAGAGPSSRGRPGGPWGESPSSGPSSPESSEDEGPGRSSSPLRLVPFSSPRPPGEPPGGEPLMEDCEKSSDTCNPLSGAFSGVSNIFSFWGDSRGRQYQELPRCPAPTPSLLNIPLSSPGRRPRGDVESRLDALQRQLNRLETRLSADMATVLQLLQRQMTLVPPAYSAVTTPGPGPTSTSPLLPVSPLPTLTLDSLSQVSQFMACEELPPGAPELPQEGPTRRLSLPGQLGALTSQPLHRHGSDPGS

The assay concerns the target human ether-à-go-go-related gene (hERG) potassium channel (human, UniProt Q12809). The assay can be described thus: primary screen, population patch clamp on CHO cells stably expressing hERG.
`Cc1ccc(S(=O)(=O)c2ccc(C)cc2)cc1`: the “hERG current change (%, negative = inhibition) at 1uM” value turned out to be 16.2%.
The value for `CCOc1ccc2nc(SCC(=O)Nc3ccc4c(c3)OCO4)sc2c1` was 4.85%.
Turning to `CN(C)c1ccc(N=Nc2ccc(S(=O)(=O)[O-])cc2)c2ccccc12.[Na+]`, the “hERG current change (%, negative = inhibition) at 1uM” value turned out to be 7.18%.
As for `CC(=O)N(C)c1ccc(NC(=O)c2cnn(C)c2)cc1`, the figure is 10.7%; as for `COc1ccc(OCC(O)CNCCNc2nccc(C(F)(F)F)n2)cc1` (centres unmarked), -6.87%; as for `O=C(c1ccco1)N1N=C(c2cccs2)CC1c1cc([N+](=O)[O-])ccc1O` (centres unmarked), 5.87%.
Take `CCN(C(=O)COC(=O)c1cn(-c2ccccc2)nc1-c1ccccc1)C1CCS(=O)(=O)C1` (centres unmarked): the “hERG current change (%, negative = inhibition) at 1uM” value is -4.73%.
For the molecule `O=C(NC(=S)Nc1ccc2c(c1)OCO2)c1ccc(Cl)cc1`, the “hERG current change (%, negative = inhibition) at 1uM” value was 17.6%.
For the molecule `c1ccc(C2=NN(c3ccccc3)CC2)cc1`, the “hERG current change (%, negative = inhibition) at 1uM” value was 4.9%.
As for `CCC(C(=O)Nc1ccccc1C(=O)N1CCOCC1)N1C(=O)c2ccccc2C1=O` (centres unmarked), the figure is 6.63%.
For the molecule `CC(C)Nc1nnc(SCC(=O)NCc2ccc3c(c2)OCO3)s1`, the “hERG current change (%, negative = inhibition) at 1uM” value is reported as 19.7%.
Consider `COc1cccc(C(=O)COC(=O)CCC(=O)NC2CCCCC2)c1`, for which the “hERG current change (%, negative = inhibition) at 1uM” value amounted to 10.1%.
As to `CC(C)(C)NC(=O)CN1C(=O)NC(c2ccccc2)(c2ccccc2)C1=O`, the “hERG current change (%, negative = inhibition) at 1uM” value worked out at 21.5%.
As for `CCCC(=O)Nc1c(-c2ccc(OC)cc2)c(=O)c2ccccc2n1C`, the “hERG current change (%, negative = inhibition) at 1uM” value was determined as 16.6%.
Regarding `COc1ccc(NC(=O)CSc2nnc(-c3ccccc3)n2Cc2ccco2)cc1OC`, the “hERG current change (%, negative = inhibition) at 1uM” value is given as -7.89%.
With `CCn1c(CCn2c3ccccc3c3ccccc32)n[nH]c1=S`, the “hERG current change (%, negative = inhibition) at 1uM” value stood at 4.85%.
For `Cc1cc(C)c(S(=O)(=O)n2c([N+](=O)[O-])cnc2C)cc1C`, the “hERG current change (%, negative = inhibition) at 1uM” value amounted to 4.47%.
For `O=C(c1ccccc1)c1cc(-c2ccccn2)c(N2CCOCC2)s1`, the “hERG current change (%, negative = inhibition) at 1uM” value came out at 3.43%.
As for `c1ccc(N2CCN(CCc3nnc4n3CCCCC4)CC2)cc1`, the “hERG current change (%, negative = inhibition) at 1uM” value was 2.9%.
The value for `CCCCOc1ccc(S(=O)(=O)N2CCN(C)CC2)cc1` was 11%; that for `N#C/C(=C\c1ccc(O)c(O)c1)C(=O)c1ccc(O)c(O)c1` was 7.27%; that for `CCn1c(/C=C2\C(=O)N(C(C)C)c3ccccc32)nc2ccccc2c1=O` was 8.36%.
Turning to `COc1ccccc1NC(=O)CSc1nnc(Cn2cnc3ccccc32)o1`, the “hERG current change (%, negative = inhibition) at 1uM” value is on record as 6.91%.
Regarding `O=C(NC(=S)NCc1cccnc1)c1cc(Br)ccc1Cl`, the “hERG current change (%, negative = inhibition) at 1uM” value is on record as 9.98%.
`Fc1cccc(Cl)c1Cn1nnc2c(NCc3ccncc3)ncnc21`: the “hERG current change (%, negative = inhibition) at 1uM” value is given as -1.74%.
On to `CN1Cc2ccccc2N(CC(=O)NCc2ccccc2)C1=O`, for which the “hERG current change (%, negative = inhibition) at 1uM” value is reported as 9.98%.
With `COc1ccc(-n2c(C)cc(C(=O)COC(=O)c3ccc(O)cc3O)c2C)cc1`, the “hERG current change (%, negative = inhibition) at 1uM” value is recorded as 16.1%.
On to `CN(C(=O)C1CCOC1)c1nnc(-c2cnccn2)s1` (centres unmarked), for which the “hERG current change (%, negative = inhibition) at 1uM” value is listed as 12.7%.
Take `Cc1c(-c2ccco2)[n+](=O)c2c(n1[O-])CCCCC2`: the “hERG current change (%, negative = inhibition) at 1uM” value stood at 3.5%.
`O=C(Cc1ccc([N+](=O)[O-])cc1)Nc1ccc(C(=O)N2CCOCC2)cc1`: the “hERG current change (%, negative = inhibition) at 1uM” value is on record as 9.76%.
Turning to `O=C1c2ccccc2C(=O)N1S(=O)(=O)c1ccccc1`, the “hERG current change (%, negative = inhibition) at 1uM” value stood at 10.9%.
In the case of `COC(=O)COc1cccc(-n2cnnn2)c1`, the “hERG current change (%, negative = inhibition) at 1uM” value was determined as 16.3%.
As for `CC1(C(=O)N/N=C/c2ccc([N+](=O)[O-])o2)CC1(Br)Br` (centres unmarked), the figure is -3.34%; as for `CC(C)Nc1nnc(SC(C)C(=O)N(C)C2CCCCC2)s1` (centres unmarked), 10.4%; as for `CCCc1cc(C(=O)N2CCCC(CO)(CCCc3ccccc3)C2)n(C)n1` (centres unmarked), -7.57%.
`Clc1ccc(-c2n[nH]c3c2CCC3)c(Cl)c1`: the “hERG current change (%, negative = inhibition) at 1uM” value worked out at 17.2%.
For `Cc1ccc(C)c2[nH]c(=O)c(CCNC(=O)c3ccc4c(c3)OCO4)cc12`, the “hERG current change (%, negative = inhibition) at 1uM” value worked out at 13.1%.
Take `Cc1[nH]c(=O)[nH]c(=O)c1S(=O)(=O)N1CCC(C(=O)N2CCN(Cc3ccccc3)CC2)CC1`: the “hERG current change (%, negative = inhibition) at 1uM” value amounted to 8.03%.
For `O=S(=O)(c1ccc(Cl)cc1)N1CCC(N2CCCCCC2)CC1`, the “hERG current change (%, negative = inhibition) at 1uM” value is on record as -4.21%.
In the case of `NC(=O)CC(NC(=O)Cc1cccc2ccccc12)c1ccc(NC2CC3CCC2C3)c([N+](=O)[O-])c1` (centres unmarked), the “hERG current change (%, negative = inhibition) at 1uM” value amounted to 3.06%.
For `Cc1ccc(C(=O)N/N=C\c2ccncc2)s1`, the “hERG current change (%, negative = inhibition) at 1uM” value is 5.19%.
As to `COC(=O)c1ccc(CSc2nc3cc(Cl)ccc3s2)o1`, the “hERG current change (%, negative = inhibition) at 1uM” value is on record as 14.4%.
For the molecule `COc1ccc2[nH]c(C(=O)Nc3ccc(F)cc3Br)cc2c1`, the “hERG current change (%, negative = inhibition) at 1uM” value is recorded as 13.5%.
Turning to `C=CCn1c(SCC(=O)NC2CCCCC2)nnc1-c1ccc(OC)cc1`, the “hERG current change (%, negative = inhibition) at 1uM” value is reported as 0.827%.
